# Results reported in the supplement of paper PMC11417369.
# ± gives the standard deviation of the averaged measurements. This is one part of the list.
# Test system: PfAP2-EXP AP2 domain (GST-tagged)
# Test: gcPBM binding intensity (ln(normalized median fluorescence intensity)); higher = stronger DNA binding
# In short: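 Binding of GST-tagged P. falciparum DNA-binding domains, expressed in E. coli and used at about 25 μg on average, was carried out for 1 h in 1× PBS containing 1% milk, 0.2 mg/ml BSA, 0.5% salmon testes DNA and 0.03% Triton X-100. The target was an Agilent 4 × 180k array of primer-extended double-stranded 36-bp intergenic genomic probes plus negative controls, read with Alexa488 anti-GST antibody at 488 nm. Binding intensity is the highest Masliner-normalised natural-log median intensity across replicate spots of either probe orientation.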
row,Sequence,gcPBM binding intensity (ln)
1,TGCTACTTATAAATAGAACACACATAAGTGTATTTG [CACACA_site9253],8.21 ± 0.3
2,AAGAAAAAAAAAAAAAAAAAAAAAAAAAAGGAAAAA [GTGCAC_negctrl_site174],8.05 ± 0.56
3,ATACTTCAATCTATTTGTACATATTTTTTAAAACCA [XGTACX_site2328],8.93 ± 0.51
4,GAAATTTTTAAATACAGTACACACATGGGTTTAAAT [XGTACX_site6124],8.8 ± 0.35
5,ATAAAGCCATACAATACACACATTTGACATGTCCGT [CACACA_site7523],8.99 ± 0.58
6,AATAATAAAAAATATACACACATATATAAATAAATA [CACACA_site6164],8.59 ± 0.38
7,TATATATATATATATTGTACTAATTGTGCAAATGAG [XGTACX_site682],10.1 ± 0.25
8,TAAGAAAAAAAATAATGTACATATGTATTTGAGAAA [XGTACX_site3569],8.69 ± 0.33
9,TATATTTAGTAAAAAGGTACCATTCTTATTTATATT [CACACA_negctrl_site1165],8.31 ± 0.35
10,TACTGTGATAGCACCACACACGCAAAAGTGAGTATA [CACACA_site1109],8.64 ± 0.35
11,TATATTAATAGACACACACACATATTTATATTTATA [CACACA_site6859],8.46 ± 0.4
12,TTTCAGCCAAACGATAAACTACGACACTTGAACGAA [CACACA_negctrl_site1747],8.54 ± 0.4
13,AATAATAGAAAAAGGTGTACTTATAAACATATACAC [XGTACX_site6921],8.61 ± 0.28
14,ATATATATATATATATGTACATATTATATATGAACG [XGTACX_site1585],10.1 ± 0.37
15,ATATATTTTTTTTCTTCACACACATGAATTATATAT [CACACA_site9053],8.94 ± 0.4
16,GTAATTATTATTAATAGTACACACTATGGCATTTCA [XGTACX_site5192],8.37 ± 0.36
17,ATTTAATTTATAAAAACACACACAGGTAAAAAGGTG [CACACA_site8306],9.14 ± 0.45
18,AAGAAAAAATAAACATGTACATAAATATATATATAT [XGTACX_site304],9.98 ± 0.18
19,ATTTTTTTTTTTATGTGTACATATATTTTTTTAATT [XGTACX_site7921],8.77 ± 0.46

row,Sequence,gcPBM binding intensity (ln)
1,CATACTGTGATAGCACCACACACGCAAAAGAGGGTA [CACACA_site8285],8.81 ± 0.35
2,TAAGGCCCTTTTCATCGTACAGTAAAATATAAATAA [XGTACX_site1278],8.52 ± 0.42
3,AATTTAACCCATTTTATAATTATTACCACTATATAT [TGCATGCA_negctrl_site452],8.79 ± 0.28
4,GAAAATTCTTAAGGCACACACATATATAATATATAC [CACACA_site569],8.6 ± 0.28
5,CAAATACATGTGTAAAGTACATATTAATAAGTCTTT [XGTACX_site6342],8.54 ± 0.45
6,TGTTGTAAATATGTTTGTACATAAATATATTATTTA [XGTACX_site5442],8.38 ± 0.35
7,TTTTTTATTGTGATACGTATATTATTTTTTGATAAA [CACACA_negctrl_site1],8.79 ± 0.4
8,TATATTTACATTGTAACACACATGAAATATATATAT [CACACA_site61],9.105 ± 0.007
9,AAAAAAAAATAATATTGTACACACATAAATTCTTTG [XGTACX_site4315],8.33 ± 0.37
10,TTAATTAATAGACACACACACATATAAATATAGATT [CACACA_site7143],8.65 ± 0.47
11,GTGTATTTTCTGCGCACACACATGCAAAAAGAAATA [CACACA_site1148],9.08 ± 0.071
12,GTTTTATTAAAAATGTGTACTTAATTATGAAAAAAA [XGTACX_site4689],8.33 ± 0.16
13,AAGAAAAAATATAATAATAATAAAATATATATAATA [TGCATGCA_negctrl_site475],8.22 ± 0.43
14,TTTGTTTTTCATAGTGCACACATAACCAAAAATAGT [CACACA_site9030],9.065 ± 0.035
15,TATTGTTTTGATTGATGTACATGTTTAAAATATATA [XGTACX_site8430],8.56 ± 0.33
16,AAAGTAAATTTAAGCACACACAACGAACTTTTATAC [CACACA_site7008],8.87 ± 0.45
17,TAATCTATTTATATGTGTACCTATTTAGAAATGACA [XGTACX_site5709],8.51 ± 0.42
18,ATATCACATTCCACGGTACACACTAAAAGAAAAATC [CACACA_site3611],8.76 ± 0.49
19,AGTTTTATGTAGTGTTGTACTTTATACAAATATATT [XGTACX_site614],8.84 ± 0.42

row,Sequence,gcPBM binding intensity (ln)
1,GCGGGTTTATCTTTCGCACACCTTACATTTTAGAAT [CACACA_site2015],8.66 ± 0.16
2,ATAAATCAAAGGCACACACACAAAAAAAAAAAAAAA [CACACA_site160],8.12 ± 0.59
3,TGTTTTTTATATTACTGTACATGTTTTGGAATAATA [XGTACX_site4716],8.8 ± 0.36
4,GTATCATTAAATTATTGTACATATATATATATATAT [XGTACX_site8809],10.1 ± 0.57
5,TATTCCTTCTACAATTAAATAATTATAATAAATATA [GTGCAC_negctrl_site26],8.46 ± 0.46
6,AACAAAAATAGAAACACACATACATTGGTTTTCTTT [CACACA_site2534],8.47 ± 0.57
7,TATTTTTGTATATATTTATTCTTATTTTACAGGAAA [TGCATGCA_negctrl_site472],8.54 ± 0.42
8,ACATTTAAGTTTAGCTGTACATATTCATCATAATTA [XGTACX_site37],8.71 ± 0.48
9,TATACATATATATATATATATAGATATATTCACGTG [XGTACX_negctrl_site265],8.445 ± 0.064
10,AAAAAAAACAGACACACACACATAAATATAAATAAA [CACACA_site6214],8.68 ± 0.47
11,TTTTTAAAAAGTAACACACACTCTTATATATAATGA [CACACA_site3618],8.46 ± 0.26
12,AAAATAATAATAAATGCATGTGTTGTTTACTAAGAA [TGCATGCA_site528],8.88 ± 0.3
13,TGAACATACATCAAAAGTACAAACTCGCATGTTATA [XGTACX_site3320],8.66 ± 0.31
14,CTCCATATTAGACACACACACAAATGAAAAAAATAT [CACACA_site7420],8.78 ± 0.55
15,TAAAATTAAACAAAAAAAAAGAAAAAAAAAAAAAAG [CACACA_negctrl_site1098],8.16 ± 0.42
16,TTTTTATATTTATATAAATAAAAAAATAACAAAATG [XGTACX_negctrl_site231],8.64 ± 0.42
17,TACCTATACAGACACACACACACACGCCCACAAAAA [CACACA_site6375],8.77 ± 0.35
18,CCGCCATTGTACCATCCACACACATATATATATGTA [CACACA_site8866],9.15 ± 0.54
